The other results are listed elsewhere or left out.
Tests used:
HSkMC = human skeletal muscle cells; assay: cytotoxicity call (relative viability < 0.9); conditions: 10 µM
HepG2 = assay: cytotoxicity call (relative viability < 0.9); conditions: 10 µM
S. aureus RN4220 = assay: growth inhibition call (relative growth <= 0.2); conditions: 50 µM

COc1ccc(S(=O)(=O)N(C)C[C@H]2Oc3c(NS(C)(=O)=O)cccc3C(=O)N([C@H](C)CO)C[C@@H]2C)cc1
cytotoxicity call (HSkMC): inactive
cytotoxicity call (HepG2): inactive
growth inhibition call (S. aureus RN4220): inactive

COc1ccccc1NC(=O)N(C)C[C@@H]1Oc2ncc(Br)cc2C(=O)N([C@@H](C)CO)C[C@@H]1C
cytotoxicity call (HSkMC): inactive
cytotoxicity call (HepG2): inactive
growth inhibition call (S. aureus RN4220): inactive

Cc1noc(C)c1S(=O)(=O)N(C)C[C@H]1Oc2ccc(NS(=O)(=O)c3cccs3)cc2C(=O)N([C@@H](C)CO)C[C@H]1C
cytotoxicity call (HSkMC): inactive
cytotoxicity call (HepG2): inactive
growth inhibition call (S. aureus RN4220): inactive

CO[C@H]1O[C@H](COS(=O)(=O)O)[C@@H](O[C@@H]2O[C@@H](C(=O)O)[C@@H](O[C@H]3O[C@H](COS(=O)(=O)O)[C@@H](O[C@@H]4O[C@H](C(=O)O)[C@@H](O[C@H]5O[C@H](COS(=O)(=O)O)[C@@H](O)[C@H](O)[C@H]5NS(=O)(=O)O)[C@H](O)[C@H]4O)[C@H](OS(=O)(=O)O)[C@H]3NS(=O)(=O)O)[C@H](O)[C@H]2OS(=O)(=O)O)[C@H](O)[C@H]1NS(=O)(=O)O
cytotoxicity call (HSkMC): inactive
cytotoxicity call (HepG2): inactive
growth inhibition call (S. aureus RN4220): inactive

COc1ccc(CN(C)C[C@H]2OCCCC[C@H](C)Oc3ccc(NC(=O)c4ccncc4)cc3C(=O)N([C@@H](C)CO)C[C@H]2C)cc1
cytotoxicity call (HSkMC): inactive
cytotoxicity call (HepG2): inactive
growth inhibition call (S. aureus RN4220): inactive

COc1ccc(NC(=O)Nc2ccc3c(c2)C(=O)N([C@H](C)CO)C[C@H](C)[C@H](CN(C)C(=O)Nc2c(C)noc2C)OCCCC[C@@H](C)O3)cc1
cytotoxicity call (HSkMC): inactive
cytotoxicity call (HepG2): inactive
growth inhibition call (S. aureus RN4220): inactive

Cc1ccc(S(=O)(=O)N(C)C[C@@H]2OCCCC[C@H](C)Oc3ccc(NC(=O)c4ccccc4)cc3C(=O)N([C@@H](C)CO)C[C@H]2C)cc1
cytotoxicity call (HSkMC): inactive
cytotoxicity call (HepG2): inactive
growth inhibition call (S. aureus RN4220): inactive

Cc1nn(C)cc1NC(=O)C[C@H]1CC[C@H]2[C@H](COc3ccc(NC(=O)C4CCOCC4)cc3C(=O)N2C)O1
cytotoxicity call (HSkMC): inactive
cytotoxicity call (HepG2): inactive
growth inhibition call (S. aureus RN4220): inactive

O=C(N[C@@H]1CC[C@@H](CCNS(=O)(=O)c2ccccc2)O[C@H]1CO)c1cnccn1
cytotoxicity call (HSkMC): inactive
cytotoxicity call (HepG2): inactive
growth inhibition call (S. aureus RN4220): inactive

C[C@H]1CN([C@@H](C)CO)C(=O)Cc2cc(NC(=O)Nc3ccc(F)cc3)ccc2O[C@H]1CN(C)S(=O)(=O)c1ccc(Oc2ccccc2)cc1
cytotoxicity call (HSkMC): inactive
cytotoxicity call (HepG2): active
growth inhibition call (S. aureus RN4220): inactive

C[C@H]1CN([C@@H](C)CO)C(=O)Cc2cc(NC(=O)C3CC3)ccc2O[C@@H]1CN(C)C(=O)Nc1ccc(F)cc1
cytotoxicity call (HSkMC): inactive
cytotoxicity call (HepG2): inactive
growth inhibition call (S. aureus RN4220): inactive

COc1ccc(S(=O)(=O)N2C[C@H](O)COC[C@H]3O[C@H](CC(=O)NCCN4CCCCC4)CC[C@@H]32)cc1
cytotoxicity call (HSkMC): inactive
cytotoxicity call (HepG2): inactive
growth inhibition call (S. aureus RN4220): inactive

C[C@@H]1CN([C@@H](C)CO)C(=O)c2cccc(NC(=O)C3CCOCC3)c2O[C@H]1CN(C)Cc1ccc2c(c1)OCO2
cytotoxicity call (HSkMC): inactive
cytotoxicity call (HepG2): inactive
growth inhibition call (S. aureus RN4220): inactive

C[C@@H]1CN([C@H](C)CO)C(=O)c2cc(NC(=O)NC3CCCCC3)ccc2O[C@@H](C)CCCCO[C@H]1CN(C)C(=O)c1ccncc1
cytotoxicity call (HSkMC): inactive
cytotoxicity call (HepG2): inactive
growth inhibition call (S. aureus RN4220): inactive

C[C@H]1CCCCO[C@@H](CN(C)S(=O)(=O)c2ccc(Cl)cc2)[C@@H](C)CN([C@@H](C)CO)C(=O)c2cc(NS(=O)(=O)c3ccccc3)ccc2O1
cytotoxicity call (HSkMC): inactive
cytotoxicity call (HepG2): inactive
growth inhibition call (S. aureus RN4220): inactive

C[C@H](CO)N1C[C@H](C)[C@@H](CN(C)C(=O)Nc2cccc(C(F)(F)F)c2)OCc2ccccc2-c2c(n(C)c3ccccc23)C1=O
cytotoxicity call (HSkMC): inactive
cytotoxicity call (HepG2): inactive
growth inhibition call (S. aureus RN4220): inactive

COc1ccccc1CN(C)C[C@@H]1OCc2ccccc2-c2c(n(C)c3ccccc23)C(=O)N([C@H](C)CO)C[C@H]1C
cytotoxicity call (HSkMC): inactive
cytotoxicity call (HepG2): inactive
growth inhibition call (S. aureus RN4220): inactive

C[C@@H]1CCCCO[C@@H](CN(C)Cc2ccc(Cl)c(Cl)c2)[C@H](C)CN([C@H](C)CO)C(=O)c2cc(NC(=O)C3CCCCC3)ccc2O1
cytotoxicity call (HSkMC): inactive
cytotoxicity call (HepG2): active
growth inhibition call (S. aureus RN4220): inactive

C[C@@H]1CCCCO[C@H](CN(C)C(=O)Nc2cccc3ccccc23)[C@@H](C)CN([C@H](C)CO)C(=O)c2cc(NC(=O)Nc3ccc(F)cc3)ccc2O1
cytotoxicity call (HSkMC): inactive
cytotoxicity call (HepG2): inactive
growth inhibition call (S. aureus RN4220): inactive

C[C@@H]1CN([C@@H](C)CO)C(=O)Cc2cc(NS(C)(=O)=O)ccc2O[C@@H]1CN(C)Cc1ccc(C(=O)O)cc1
cytotoxicity call (HSkMC): inactive
cytotoxicity call (HepG2): inactive
growth inhibition call (S. aureus RN4220): inactive

O=C(C[C@@H]1C[C@@H]2c3cc(NS(=O)(=O)c4ccc(F)cc4)ccc3O[C@@H]2[C@@H](CO)O1)N1CCOCC1
cytotoxicity call (HSkMC): inactive
cytotoxicity call (HepG2): inactive
growth inhibition call (S. aureus RN4220): inactive

COc1ccc(CCc2nc3cc(-c4c(C)noc4C)ccc3n2C[C@H](C)N2CCOCC2)cc1Cl
cytotoxicity call (HSkMC): inactive
cytotoxicity call (HepG2): inactive
growth inhibition call (S. aureus RN4220): inactive

COCC#Cc1cnc2c(c1)C(=O)N([C@H](C)CO)C[C@H](C)[C@H](CN(C)C(=O)Nc1cc(F)ccc1F)O2
cytotoxicity call (HSkMC): inactive
cytotoxicity call (HepG2): inactive
growth inhibition call (S. aureus RN4220): inactive

CN1CCC2(CC1)CN(C(=O)CNC(N)=O)CCCN2C
cytotoxicity call (HSkMC): inactive
cytotoxicity call (HepG2): inactive
growth inhibition call (S. aureus RN4220): inactive

C[C@H]1CN([C@@H](C)CO)C(=O)c2cc(NC(=O)Nc3ccccc3)ccc2O[C@@H]1CN(C)CC1CCCCC1
cytotoxicity call (HSkMC): inactive
cytotoxicity call (HepG2): inactive
growth inhibition call (S. aureus RN4220): inactive

CCNC(=O)CC[C@@H](N)C(=O)O
cytotoxicity call (HSkMC): inactive
cytotoxicity call (HepG2): inactive
growth inhibition call (S. aureus RN4220): inactive

Cc1noc(C)c1S(=O)(=O)Nc1ccc2c(c1)CC(=O)N([C@@H](C)CO)C[C@H](C)[C@@H](CN(C)C(=O)NC1CCCCC1)O2
cytotoxicity call (HSkMC): inactive
cytotoxicity call (HepG2): inactive
growth inhibition call (S. aureus RN4220): inactive

CC(=O)N(C)C[C@H]1Oc2ncc(C#C[C@H](C)O)cc2C(=O)N([C@H](C)CO)C[C@H]1C
cytotoxicity call (HSkMC): inactive
cytotoxicity call (HepG2): inactive
growth inhibition call (S. aureus RN4220): inactive

c1ccc(-c2nn(-c3ccccc3)c3c2cnc2ccccc23)cc1
cytotoxicity call (HSkMC): inactive
cytotoxicity call (HepG2): active
growth inhibition call (S. aureus RN4220): inactive

Cc1ccc(S(=O)(=O)Nc2cccc3c2O[C@@H](CN(C)S(=O)(=O)c2cn(C)cn2)[C@@H](C)CN([C@H](C)CO)C3=O)cc1
cytotoxicity call (HSkMC): inactive
cytotoxicity call (HepG2): inactive
growth inhibition call (S. aureus RN4220): inactive

Cc1cnc(C(=O)O)c[n+]1[O-]
cytotoxicity call (HSkMC): inactive
cytotoxicity call (HepG2): inactive
growth inhibition call (S. aureus RN4220): inactive

C[C@H](CO)N1C[C@H](C)[C@@H](CN(C)C(=O)Nc2ccc3c(c2)OCO3)OCCCC[C@H](C)Oc2ccc(NC(=O)C3CCCCC3)cc2C1=O
cytotoxicity call (HSkMC): inactive
cytotoxicity call (HepG2): inactive
growth inhibition call (S. aureus RN4220): inactive

Cc1cccc(OC[C@H](O)Cn2c(N3CCN(C)CC3)nc3c2c(=O)n(C)c(=O)n3C)c1
cytotoxicity call (HSkMC): inactive
cytotoxicity call (HepG2): inactive
growth inhibition call (S. aureus RN4220): inactive

C[C@H](CO)N1C[C@H](C)[C@@H](CN(C)C(=O)Nc2ccc(C(F)(F)F)cc2)OCCCC[C@H](C)Oc2ccc(NC(=O)CCC(F)(F)F)cc2C1=O
cytotoxicity call (HSkMC): inactive
cytotoxicity call (HepG2): active
growth inhibition call (S. aureus RN4220): inactive

CC(=O)c1cc2ccccc2s1
cytotoxicity call (HSkMC): inactive
cytotoxicity call (HepG2): inactive
growth inhibition call (S. aureus RN4220): inactive

COc1ccc(NC(=O)N(C)C[C@H]2OCc3cnnn3CCCC(=O)N([C@H](C)CO)C[C@@H]2C)c(OC)c1
cytotoxicity call (HSkMC): inactive
cytotoxicity call (HepG2): inactive
growth inhibition call (S. aureus RN4220): inactive

O=C(C[C@@H]1CC[C@@H](NS(=O)(=O)c2ccccc2F)[C@H](CO)O1)NCCCN1CCOCC1
cytotoxicity call (HSkMC): inactive
cytotoxicity call (HepG2): inactive
growth inhibition call (S. aureus RN4220): inactive

C[C@H](CO)N1C[C@H](C)[C@H](CN(C)C(=O)Nc2ccccc2)Oc2ccc(NC(=O)Nc3ccc(C(F)(F)F)cc3)cc2CC1=O
cytotoxicity call (HSkMC): inactive
cytotoxicity call (HepG2): active
growth inhibition call (S. aureus RN4220): inactive

CC(C)N[C@H]1CCS(=O)(=O)C1
cytotoxicity call (HSkMC): inactive
cytotoxicity call (HepG2): inactive
growth inhibition call (S. aureus RN4220): inactive

C[C@@H]1CN([C@@H](C)CO)C(=O)c2cc(NS(=O)(=O)c3ccc(Cl)cc3)ccc2O[C@@H](C)CCCCO[C@@H]1CN(C)C(=O)Nc1ccc(C(F)(F)F)cc1
cytotoxicity call (HSkMC): inactive
cytotoxicity call (HepG2): inactive
growth inhibition call (S. aureus RN4220): inactive

COc1ccc(-c2coc3cc(OC(C)=O)cc(OC(C)=O)c3c2=O)cc1
cytotoxicity call (HSkMC): inactive
cytotoxicity call (HepG2): inactive
growth inhibition call (S. aureus RN4220): inactive

O=C(C[C@@H]1CC[C@H]2[C@@H](COC[C@H](O)CN2S(=O)(=O)c2ccc(Oc3ccccc3)cc2)O1)NCCN1CCCCC1
cytotoxicity call (HSkMC): inactive
cytotoxicity call (HepG2): inactive
growth inhibition call (S. aureus RN4220): inactive

C[C@H](CO)N1C[C@H](C)[C@@H](CN(C)C(=O)c2cccc(F)c2)Oc2cc(C#CC3CC3)ccc2S1(=O)=O
cytotoxicity call (HSkMC): inactive
cytotoxicity call (HepG2): inactive
growth inhibition call (S. aureus RN4220): inactive

COc1ccc(S(=O)(=O)N(C)C[C@@H]2Oc3ccc(NC(=O)CCN4CCOCC4)cc3C(=O)N([C@@H](C)CO)C[C@@H]2C)cc1
cytotoxicity call (HSkMC): inactive
cytotoxicity call (HepG2): inactive
growth inhibition call (S. aureus RN4220): inactive

COc1ccc(NC(=O)Nc2ccc3c(c2)C(=O)N([C@@H](C)CO)C[C@H](C)[C@H](CN(C)CC2CCCCC2)O3)cc1
cytotoxicity call (HSkMC): inactive
cytotoxicity call (HepG2): inactive
growth inhibition call (S. aureus RN4220): inactive

NC(=S)N[C@H]1C[C@@H]2C=C[C@H]1C2
cytotoxicity call (HSkMC): inactive
cytotoxicity call (HepG2): inactive
growth inhibition call (S. aureus RN4220): inactive

COc1ccc(NC(=O)N(C)C[C@@H]2OCCCC[C@H](C)Oc3ccc(NC(=O)Nc4ccccc4)cc3C(=O)N([C@@H](C)CO)C[C@@H]2C)cc1
cytotoxicity call (HSkMC): inactive
cytotoxicity call (HepG2): inactive
growth inhibition call (S. aureus RN4220): inactive

C[C@@H]1CCCCO[C@H](CN(C)C(=O)NC2CCCCC2)[C@H](C)CN([C@H](C)CO)C(=O)c2cc(NS(=O)(=O)c3ccc(F)cc3)ccc2O1
cytotoxicity call (HSkMC): inactive
cytotoxicity call (HepG2): active
growth inhibition call (S. aureus RN4220): inactive

COc1ccccc1S(=O)(=O)N(C)C[C@@H]1OCc2cnnn2CCCC(=O)N([C@H](C)CO)C[C@@H]1C
cytotoxicity call (HSkMC): inactive
cytotoxicity call (HepG2): inactive
growth inhibition call (S. aureus RN4220): inactive

C[C@@H]1CCCCO[C@@H](CN(C)S(=O)(=O)c2ccccc2)[C@@H](C)CN([C@H](C)CO)C(=O)c2cc(NC(=O)CCCCCC(=O)Nc3ccccc3N)ccc2O1
cytotoxicity call (HSkMC): inactive
cytotoxicity call (HepG2): inactive
growth inhibition call (S. aureus RN4220): inactive

C[C@H]1CN([C@@H](C)CO)C(=O)Cc2cc(NC(=O)Nc3ccccc3)ccc2O[C@H]1CN(C)Cc1ccc(Oc2ccccc2)cc1
cytotoxicity call (HSkMC): active
cytotoxicity call (HepG2): active
growth inhibition call (S. aureus RN4220): inactive

C[C@@H]1CCCCO[C@H](CN(C)S(=O)(=O)c2ccc(Cl)cc2)[C@@H](C)CN([C@H](C)CO)C(=O)c2cc(NC(=O)NC3CCCCC3)ccc2O1
cytotoxicity call (HSkMC): inactive
cytotoxicity call (HepG2): inactive
growth inhibition call (S. aureus RN4220): inactive

C[C@H](CO)N1C[C@H](C)[C@@H](CN(C)S(=O)(=O)c2ccc(Cl)cc2)Oc2c(NC(=O)C3CCOCC3)cccc2C1=O
cytotoxicity call (HSkMC): inactive
cytotoxicity call (HepG2): inactive
growth inhibition call (S. aureus RN4220): inactive

Reference: the antibiotic and cytotoxicity screens of Wong et al. (2023)
